Several values for one entry are separate records, joined by “and”; a condition that tells them apart may be missing. Equal entries are not always repeated. Structures can show the parent of a compound that is named as a salt. ± gives the standard deviation of the averaged measurements. The full ranking holds about 2,000 compounds; the median of “relative cell viability vs DMSO, compound alone” is about 1.1, and the lowest 2% start at about 0.29. The list shows a part of the results.

The experiment has as its system TE10. The experiment in a line: relative cell viability vs DMSO, compound alone (fraction); TE10 is an esophageal squamous carcinoma line; higher = less cytotoxic. The conditions noted are these: 2 µM; 48 h. How it is done:
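TE10 ESCC cells (1,000/well, 384-well plates) were treated with Selleck bioactive library compounds at 2 uM alone for 48 h. Viability was read by CellTiter-Glo and expressed relative to DMSO wells. Two technical replicates (A, B).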
Turning to `CN(C)C(=S)NN=C(c1ccccn1)c1ccccn1`, the relative cell viability turned out to be 0.6013 ± 0.0038.

On to `C[C@H]1C[C@@H]2[C@H]([C@@H](O)C[C@@]3(C)[C@H]2CC[C@]3(O)C(=O)CO)[C@@]2(C)C=CC(=O)C=C12` [Methylprednisolone], for which the relative cell viability came to 0.87 ± 0.053.

As to `COc1cc2c(Oc3ccc4[nH]c(C)cc4c3F)ncnc2cc1OCCCN1CCCC1` [Cediranib (AZD2171)], the relative cell viability was found to be 1.02 ± 0.12.

In turn, `O=C(O)c1cc(-c2ccccc2)nc2ccccc12` [Cinchophen] displayed a relative cell viability of 1.06 ± 0.052.

The molecule `CC(=O)O[C@]1(C(C)=O)CC[C@H]2[C@@H]3C[C@H](C)C4=CC(=O)CC[C@]4(C)[C@H]3CC[C@@]21C` [Medroxyprogesterone acetate] gave a relative cell viability of 0.904 ± 0.067.

The molecule `Nc1nc2n[nH]nc2c(=O)[nH]1` [Azaguanine-8] returned a relative cell viability of 1.24 ± 0.016.

As to `CC(NC(=O)C(O)c1cc(F)cc(F)c1)C(=O)NC1C(=O)N(C)c2ccccc2-c2ccccc21` (stereo not given), the relative cell viability amounted to 1.05 ± 0.019.

`CN(C)c1nc(N(C)C)nc(N(C)C)n1` [Altretamine] showed a relative cell viability of 1.18 ± 0.015.

`CCOC(=O)[C@H](CCc1ccccc1)N[C@H]1CS[C@H](c2cccs2)CN(CC(=O)O)C1=O` [Temocapril HCl]: the relative cell viability is 1.13 ± 0.031.

`COc1ccc(F)c(F)c1C(=O)c1cnc(NC2CCN(S(C)(=O)=O)CC2)nc1N` showed a relative cell viability of 0.479 ± 0.012.

On to `O=S(=O)(O)c1cc(O)ccc1O` [Ethamsylate], for which the relative cell viability turned out to be 1.1 ± 0.022.

`O=C1C[C@@H](c2ccc(O)cc2)Oc2cc(O)cc(O)c21` [Naringenin]: the relative cell viability was 1.04 ± 0.077.

Regarding `CCC(=O)O[C@]1(C(=O)CCl)[C@@H](C)C[C@H]2[C@@H]3CCC4=CC(=O)C=C[C@]4(C)[C@@]3(F)[C@@H](O)C[C@@]21C` [Clobetasol propionate], the relative cell viability was 0.99 ± 0.013.

In turn, `CC(=O)Nc1nc(C)c(-c2ccc(Cl)c(S(=O)(=O)NCCO)c2)s1` yielded a relative cell viability of 0.876 ± 0.03.

Molecule `COc1ccc(C2CNC(=O)C2)cc1OC1CCCC1` (stereo not given) [Rolipram] came in with a relative cell viability of 1.11 ± 0.14.

Consider `COc1ccc(C2CNC(=O)C2)cc1OC1CCCC1` (stereo not drawn) [S- (+)-Rolipram], for which the relative cell viability was found to be 1.088 ± 0.0016.

`O=c1c(O)c(-c2ccc(O)cc2O)oc2cc(O)cc(O)c12` [Morin Hydrate]: the relative cell viability was 1.09 ± 0.023.

Consider `O=c1oc2ccccc2c(O)c1Cc1c(O)c2ccccc2oc1=O` [Dicoumarol], for which the relative cell viability stood at 1.06 ± 0.02.

For the molecule `CS(=O)(=O)N1CCc2c(-c3cnc(N)nc3)nc(N3CCOCC3)nc21`, the relative cell viability was 0.379 ± 0.015.

`Cc1nc(=O)c2cc(CN(C)c3ccc(C(=O)N[C@@H](CCC(=O)O)C(=O)O)s3)ccc2[nH]1` [Raltitrexed] returned a relative cell viability of 1.07 ± 0.086.

The molecule `COC(=O)CCSCc1ccc(-c2onc(C)c2NC(=O)OC(C)c2ccccc2Cl)cc1` (stereo not given) yielded a relative cell viability of 1.045 ± 0.0031.

The molecule `CC(/C=C1\SC(=S)N(CC(=O)O)C1=O)=C\c1ccccc1` [Epalrestat] showed a relative cell viability of 0.815 ± 0.045.

In turn, `c1ccc(CNc2nc(NCc3ccccc3)c3ccccc3n2)cc1` showed a relative cell viability of 1.01 ± 0.073.

The molecule `O=C1c2ccccc2C(=O)c2c1ccc(O)c2O` [Alizarin] came in with a relative cell viability of 1.0853 ± 0.001.

As to `C[C@H](CCC(=O)O)[C@H]1CC[C@H]2[C@@H]3[C@H](O)C[C@@H]4C[C@H](O)CC[C@]4(C)[C@H]3CC[C@]12C` [Chenodeoxycholic Acid], the relative cell viability worked out at 0.915 ± 0.096.

As to `CC(C)CC(CC(=O)NO)C(=O)N[C@@H](Cc1ccc2ccccc2c1)C(=O)N[C@@H](C)C(=O)NCCN` (stereo not given in full), the relative cell viability was determined as 1.04 ± 0.077.

Molecule `C=CC(=O)Nc1cccc(Oc2nc(Nc3ccc(N4CCN(C)CC4)cc3OC)ncc2Cl)c1` returned a relative cell viability of 1.1468 ± 0.00085.

Take `O=C(/C=C/c1ccc(O)c(O)c1)OCCc1ccccc1` [Caffeic Acid Phenethyl Ester]: the relative cell viability was 1.06 ± 0.038.

`COc1ccc([C@@H]2CC(=O)c3c(O)cc(O[C@@H]4O[C@H](CO)[C@@H](O)[C@H](O)[C@H]4O[C@@H]4O[C@@H](C)[C@H](O)[C@@H](O)[C@H]4O)cc3O2)cc1O` [Neohesperidin] yielded a relative cell viability of 1.17 ± 0.037.

In turn, `CC(=O)OCC(CCn1cnc2cnc(N)nc21)COC(C)=O` [Famciclovir] gave a relative cell viability of 1.03 ± 0.093.

In turn, `CC[C@H](C)C(=O)O[C@H]1CCC=C2C=C[C@H](C)[C@H](CC[C@@H]3C[C@@H](O)CC(=O)O3)[C@H]21` [Mevastatin] yielded a relative cell viability of 1.11 ± 0.022.

As for `Nc1cc(C(Cl)=C(Cl)Cl)c(S(N)(=O)=O)cc1S(N)(=O)=O` [Clorsulon], the relative cell viability turned out to be 1.12 ± 0.092.

The molecule `Cc1ccccc1CN1C2=NCCN2C(=O)C2=C1CCN(Cc1ccccc1)C2` [TIC10 Analogue] had a relative cell viability of 1.13 ± 0.054.

Regarding `C[C@@H]1CCN(C(=O)CC#N)C[C@@H]1N(C)c1ncnc2[nH]ccc12`, the relative cell viability was 1.1 and 1.05.

Regarding `C#CC[C@H](c1nc2cc(Cl)ccc2c(=O)n1Nc1ccccc1)N(CCCN)C(=O)c1cccc(Cl)c1F`, the relative cell viability worked out at 0.982 ± 0.051.

`CCOC(=O)Nc1cc(-c2ccc(C)c(NS(C)(=O)=O)c2)nn2c(C)nnc12` [Bromosporine] gave a relative cell viability of 0.921 ± 0.015.

In turn, `C[C@@H]1COCCN1c1cc(C2(S(C)(=O)=O)CC2)nc(-c2cccc3[nH]ccc23)n1` showed a relative cell viability of 0.71 ± 0.039.

`O=c1[nH]c(=O)n(C2CCCO2)cc1F` (stereo not given) returned a relative cell viability of 1.29 ± 0.056.

`Cc1cc2c(F)c(Oc3ncnn4cc(OC[C@@H](C)OC(=O)[C@H](C)N)c(C)c34)ccc2[nH]1` yielded a relative cell viability of 0.998 ± 0.014.

Regarding `COc1ccc([C@]2(C#N)CC[C@@H](C(=O)O)CC2)cc1OC1CCCC1` [Cilomilast], the relative cell viability is 0.952 ± 0.058.

The molecule `O=C(NCCO)c1cccc(-c2cc(Nc3ccc(OC(F)(F)F)cc3)ncn2)c1` gave a relative cell viability of 1.2 ± 0.053.

`COCC[n+]1c2c(n(Cc3cnccn3)c1C)C(=O)c1ccccc1C2=O` [YM155 (Sepantronium Bromide)] gave a relative cell viability of 0.0556 ± 0.0047.

Molecule `O=S(=O)(O)NC1CCCCC1` [Cyclamic  acid] gave a relative cell viability of 1.18 ± 0.022.

On to `N=C(N)NC(=N)N1CCOCC1` [Moroxydine HCl], for which the relative cell viability is 1.19 ± 0.017.

`CC(=O)Oc1cccc2c1C(=O)c1c(OC(C)=O)cc(C(=O)O)cc1C2=O` [Diacerein] displayed a relative cell viability of 1.11 ± 0.023.

Consider `CCN(CC)Cc1ccc2cc(COC(=O)Nc3ccc(C(=O)NO)cc3)ccc2c1` [Givinostat (ITF2357)], for which the relative cell viability was 0.306 ± 0.036.

`CC(C)(C#N)c1ccc(N2C(=O)OCc3cnc4ccc(-c5cnc6ccccc6c5)cc4c32)cc1` showed a relative cell viability of 0.71 ± 0.068.

Turning to `CC(C)C[C@@H](C=O)NC(=O)[C@H](CC(C)C)NC(=O)[C@H](CC(C)C)NC(=O)OCc1ccccc1`, the relative cell viability was determined as 0.0786 ± 0.0013.

`CN(C)CCc1c[nH]c2ccc(Cn3cncn3)cc12` [Rizatriptan Benzoate] yielded a relative cell viability of 1.031 ± 0.0057.

For the molecule `O=C(c1ccc(C(=O)N2CCC(N3CCCC3)CC2)c(Nc2ccccc2)c1)N1CCC(N2CCCC2)CC1`, the relative cell viability turned out to be 1.15 ± 0.046.
